# Test results reported in PubChem BioAssay AID1240 (Sanford-Burnham Center for Chemical Genomics, 2008).
# Hit rate of the full screen: of about 50,000 compounds, about 800 (1.6%) showed an effect of 50% or more. Some of the results follow.
# Target: Bcl-2-like protein 10 (Homo sapiens) (UniProt Q9HD36)
# Experiment: TR3 peptide-Bcl-B binding displacers, biochemical primary FP assay, phenotype converters (AID 1240);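 further: 0% = Bcl-B with tracer peptide and DMSO and 100% = tracer peptide lacking Bcl-B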
# Details: GST-Bcl-B / FITC-TR3 peptide fluorescence polarization; stronger effect = higher value; compound at 3.75 mg/L
# Chain of UniProt Q9HD36 (Q9HD36 whole entry, looked up): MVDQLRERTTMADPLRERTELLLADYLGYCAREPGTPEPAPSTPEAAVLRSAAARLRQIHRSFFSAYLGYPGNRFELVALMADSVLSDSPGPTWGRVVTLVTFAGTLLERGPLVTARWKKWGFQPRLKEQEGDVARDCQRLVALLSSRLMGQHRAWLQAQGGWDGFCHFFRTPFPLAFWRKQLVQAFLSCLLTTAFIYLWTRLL
row,Compound,displacement
1,COc1cc([N+](=O)[O-])ccc1NC(=O)COc1cccc(C)c1,-8.5%
2,O=C(Nc1ccccc1C(=O)N1CCCC1)c1cccc(F)c1,-13.6%
3,CCc1cccc(NC(=O)C2CC=CCC2C(=O)O)c1 (centres undefined),-6.5%
4,COc1ccc(/C=C/C(=O)NCCCN2CCOCC2)cc1,13.1%
5,CC(=O)Nc1ccc(S(=O)(=O)Nc2cc(C)cc(C)c2)cc1,11.2%
6,O=C(Nc1ccc(F)cc1F)c1nn2c(c1Cl)NC(c1cccs1)CC2C(F)(F)F (centres undefined),0.7%
7,O=C(/C=C(\O)c1cccc([N+](=O)[O-])c1)C(F)(F)F,2.8%
8,O=C(Nc1ccc(Br)c(Cl)c1)c1ccco1,12.6%
9,CCOC(=O)c1ccc(-n2sc3c(c2=S)-c2ccccc2NC3(C)C)cc1,8.2%
10,CCOc1cc(C2C(C(=O)OC(C)C)=C(C)NC3=C2C(=O)CCC3)cc([N+](=O)[O-])c1O (centres undefined),-0.2%
11,N#Cc1ccccc1N=C1C(=O)Nc2ccccc21,14.4%
12,COC(=O)c1ccccc1-c1ccc(/C=C2/SC(=S)N(c3ccccc3)C2=O)o1,70%
13,Cc1ccc2c(Cl)c(C(=O)N3CCN(C)CC3)sc2c1,-12.7%
14,COc1ccccc1OCCOCCOc1ccccc1OC,12.1%
15,CC(=O)N(OCON(C(C)=O)C(C)=O)C(C)=O,-11.5%
16,CCOC(=O)c1ccccc1NS(=O)(=O)c1ccc(OC)c(OC)c1,8%
17,O=[N+]([O-])c1ccc(C(O)C23CN4CN(CN(C4)C2)C3)cc1 (centres undefined),1.2%
18,COc1ccc(Oc2c(C(F)(F)F)oc3c(CN(C)C)c(O)ccc3c2=O)cc1,3.5%
19,C=CCn1c(CCCN2C(=O)c3cccc4cccc(c34)C2=O)nnc1SC/C=C/c1ccccc1,-6.5%
20,O=C1c2ccccc2C(=O)N1c1cccc(S(=O)(=O)N2CCCCC2)c1,9.3%
21,COC(=O)c1sccc1NS(=O)(=O)c1ccc(OC)cc1,-4.7%
22,COc1ccc(/C=N/NC(=O)c2cc(-c3ccc(Cl)cc3)n[nH]2)cc1,10%

row,Compound,displacement
1,COc1ccc(S(=O)(=O)N2CCN(Cc3cccn3C)CC2)cc1,-7%
2,COc1ccc2nc(SCC(=O)NCCc3ccccc3)[nH]c2c1,-0.4%
3,CN(C)CCCNC(=O)/C=C/c1ccc(C(C)(C)C)cc1,6.4%
4,Cc1cccnc1NC(=O)Nc1cccc(F)c1,-1.7%
5,O=C(N/N=C/c1ccc(C(=O)O)cc1)C(=O)N1CCCCCC1,-13.8%
6,COC(=O)C1=C(C)NC2=C(C(=O)CC(C)(C)C2)C1c1cccc(Cl)c1 (centres undefined),2.8%
7,Cc1cc(Cl)ccc1NC(=O)c1ccccc1[N+](=O)[O-],-4.1%
8,CC(Cc1ccccc1)NC(=O)CC(c1ccccc1)c1ccc(O)c(Cl)c1Cl (centres undefined),2.6%
9,CCOC(=O)c1ccc(Nc2nc3nonc3nc2NC(C)C)cc1,-7.1%
10,CC1(c2ccccc2)CC(C)(C)N(C(N)=O)c2ccccc21 (centres undefined),4.5%
11,O=C(O)CSc1nc2ccc(N3C(=O)C4CCCCC4C3=O)cc2s1 (centres undefined),5.9%
12,COC(=O)CN(c1cc(Cl)ccc1OC)S(=O)(=O)c1ccc(C)c([N+](=O)[O-])c1,5.7%
13,CC(=O)Nc1ccc(C(=O)NCCCN(C)C)cc1,-6.4%
14,Cc1c(OCC(=O)OCc2ccccc2)ccc2c3c(c(=O)oc12)CCCC3,-2.6%
15,CC(=O)Nc1cccc(-c2nnc(-c3cccc(NC(C)=O)c3)o2)c1,-11.4%
16,CC(C)=CC1C=C(C)C(C)C(C(=O)O)C1C(=O)O (centres undefined),9.4%
17,COc1ccc(CC2S/C(=N\N=C\c3ccc(C(C)C)cc3)NC2=O)cc1 (centres undefined),3.4%
18,O=C(Nc1nc(-c2ccc(-c3ccccc3)cc2)cs1)C1CC1,-1.1%
19,COc1ccc(-n2c(C=C3C(=O)Nc4ccc(C)cc43)nc3ccccc3c2=O)cc1,5.5%
20,COC(=O)c1sccc1NC(=O)CCc1ccccc1,-6.8%
21,Cc1cc(OCC(O)CN2CCN(CCO)CC2)cc(C)c1Cl (centres undefined),-5.1%
22,O=C(CCCN1C(=O)/C(=C/c2ccccc2)SC1=S)Nc1ccc(O)cc1,10.6%

row,Compound,displacement
1,O=C1C=CC(=NS(=O)(=O)c2cc(Cl)ccc2Cl)C=C1,10.6%
2,Cc1ccc(-c2cc3nc(C)c(C)c(=O)n3[nH]2)cc1,-8%
3,Cc1cc2ncn(C(=O)c3cccc(I)c3)c2cc1C,-5.7%
4,CC1=NN(C(=O)c2ccccc2)C(O)(c2ccc(Br)cc2)C1 (centres undefined),-5.5%
5,CCOC(=O)C1=C(C)N=c2s/c(=C\c3ccco3)c(=O)n2C1c1cccc(OC)c1 (centres undefined),-25.3%
6,CC1=C(C(=O)OC2CCCC2)C(c2ccccc2)C2=C(CC(C)(C)CC2=O)N1 (centres undefined),6.2%
7,COc1ccc(N=C2NC(=O)/C(=C\c3ccco3)S2)cc1,7.4%
8,O=C(/C=C/c1ccccc1Cl)N1CCCCCC1,11.9%
9,C=CCNC(=O)C(=O)NCC1CCCO1 (centres undefined),9%
10,O=C(N/N=C/c1cccs1)c1cc(C2CC2)[nH]n1,-3.3%
11,CCOC(=O)c1c(NC(=O)OC)sc(C)c1CC,-59.7%
12,CC(C)C(NS(=O)(=O)c1ccccc1[N+](=O)[O-])C(=O)Nc1cccc2ccccc12 (centres undefined),7.8%
13,CCSc1nc2ccccc2n1CC(=O)Nc1c(C)cccc1C,6.7%
14,CCOC(=O)CSc1nc2sc3c(c2c(=O)n1C1CCCCC1)CCCC3,-1.1%
15,O=C(Oc1ccc([N+](=O)[O-])cc1)c1cc(S(=O)(=O)N2CCCCC2)c(Cl)cc1Cl,-8.7%
16,O=C(Nc1ccc2nc(SCc3ccc(F)cc3)sc2c1)c1ccccc1C(=O)N1CCCC1,-8.4%
17,C=CCn1c(=N)n(CC(O)c2ccc(C)cc2)c2ccccc21 (centres undefined),-7%
18,O=C(Nc1ccc(OC(F)(F)F)cc1)c1cccc2c(Br)cccc12,5.8%
19,Cc1ccccc1S(=O)(=O)NNC(=O)c1ccccc1O,4.7%
20,O=C1c2ccccc2C(=O)N1Cc1nc2ccccc2c(=O)o1,4.2%
21,Cc1cc(C)nc(NS(=O)(=O)c2ccc(NC(=O)CSc3nc(C)cc(C)n3)cc2)n1,4.1%
22,O=C1OC(c2ccccc2)=C/C1=C/c1ccc(-c2ccc([N+](=O)[O-])cc2)o1,-5.6%

row,Compound,displacement
1,C=CCOc1ccc(Cl)cc1/C=C1/C(=O)NN(c2ccccc2)C1=O,9.7%
2,CCOC(=O)C(CCCCOc1ccccc1OC)C(=O)OCC,3.7%
3,O=C(O)CCn1c(=S)n(CCC(=O)O)c2ccccc21,2.6%
4,COc1ccc2c(Cl)c(C(=O)N3CCOCC3)sc2c1,-17.4%
5,COc1ccccc1C(=O)N1CCN(Cc2cccc(Cl)c2)CC1,-10.2%
6,O=C(O)c1ccc(-c2ccc(/C=C3\SC(=S)N(c4cccc(F)c4)C3=O)o2)cc1,-25.5%
7,COc1cccc(OCc2cc(C3Nc4ccccc4C(=O)N3Cc3ccccc3)ccc2OC)c1 (centres undefined),-6.9%
8,Cc1cccc(C(=O)Nc2sc3c(c2C(=O)NCc2ccco2)CCC3)c1,-19.6%
9,Nc1cccc(-c2nnc(-c3ccccc3)o2)c1,4.5%
10,O=C1C2C3C=CC(C4CC34)C2C(=O)N1c1ccccc1F (centres undefined),-5.8%
11,O=C(c1ccccc1[N+](=O)[O-])N1CCC(Cc2ccccc2)CC1,-4%
12,Cc1cccc(C(=O)N(C(=O)c2cccc(C)c2)c2ncccc2C)c1,20.7%
13,Cc1cccc(CC(Cc2nc3ccccc3[nH]2)c2nc3ccccc3[nH]2)c1 (centres undefined),-0.9%
14,CCOc1cccc2c1NC(C)(C)C1=C2C2(SC(C(=O)OC)=C(C(=O)OC)S2)C(C(=O)OC)=C(C(=O)OC)S1,7.4%
15,COc1ccc(-n2nc3cc(C)c(NC(=O)c4cccs4)cc3n2)cc1,-1.3%
16,Cc1ccc(NC(=O)C(F)(F)F)cc1C,14.4%
17,Cc1ccc(/C(N)=N/OC(=O)c2ccc(C)c([N+](=O)[O-])c2)cc1,12.3%
18,COC(=O)CNC(c1ccccc1)c1cc(Br)ccc1NC(=O)CCCNC(=O)OCc1ccccc1 (centres undefined),15.4%
19,CC(C)OC(=O)c1c(-c2ccc(Br)cc2)csc1N,-8.4%
20,Cc1ccc(C)c(S(=O)(=O)N=Nc2c(O)[nH]c3ccc(Br)cc23)c1,13.1%
21,C/C(=N\NC(=O)c1cc(C(C)(C)C)[nH]n1)c1cccc([N+](=O)[O-])c1,-5.3%
22,Cc1cc(/C=C2\C(=O)NC(=O)N(c3ccccc3F)C2=O)c(C)n1C,20.4%

row,Compound,displacement
1,NC(=O)N=Nc1c(O)[nH]c2ccccc12,6.6%
2,CC(C)CNC(=O)CN(c1ccc(C(C)C)cc1)S(=O)(=O)c1ccccc1,2.2%
3,O=C(Nc1ccccc1C(F)(F)F)c1cc(I)ccc1Cl,-4.4%
4,COc1ccc(NC(=O)Cn2nc(C(F)(F)F)c(Br)c2C)c(OC)c1,-6.7%
5,COc1cccc(/C=C2/SC(=S)N(CC(=O)O)C2=O)c1,9.8%
6,CCC(C(=O)N1CCC(Cc2ccccc2)CC1)c1ccccc1 (centres undefined),7.1%
7,C=CCn1c(O)c(N=NC(=O)c2ccc(Cl)c([N+](=O)[O-])c2)c2cc(Br)ccc21,5.3%
8,CC(C)c1ccc(CNc2cc(N3CCCC3)ccc2[N+](=O)[O-])cc1,-9.4%
9,C/C(=N/NC(=O)Nc1ccccc1)C1CC1,12.9%
10,Cc1c(C(=O)NN(c2ccccc2)c2ccccc2)cccc1[N+](=O)[O-],-4.1%
11,O=C(O)CCCN1C(=O)C(=O)/C(=C(/O)c2ccccc2)C1c1ccccc1F (centres undefined),-2.5%
12,CS(=O)(=O)N(CC(=O)NC1CC1)c1ccc(Cl)cc1,-13.2%
13,O=C(Nc1ccc(Cl)c(Cl)c1)Nc1nnc(-c2ccc(F)cc2)s1,5%
14,CC(=O)c1ccc(N2C(=O)C3CCC(C)(C2=O)C3(C)C)cc1 (centres undefined),-8.8%
15,Cc1ccc2nc(SCC(=O)Nc3cccc([N+](=O)[O-])c3)[nH]c2c1,9%
16,COc1ccc(CC(=O)Nc2cccc(Br)c2)cc1OC,2%
17,CCOC(=O)/C=C/C(=O)Nc1nc(-c2ccccc2)cs1,-15.9%
18,O=C(Cc1ccccc1)Nc1cc(C(F)(F)F)cc(C(F)(F)F)c1,-0.6%
19,CC(=O)C1=C(O)C(=O)N(c2nc3ccccc3s2)C1c1ccc(C(C)C)cc1 (centres undefined),-12.7%
20,NS(=O)(=O)c1cccc(-c2ccc(C=O)o2)c1,7.1%
21,Cc1cc(C)c(N2C(=O)NC(=O)C(=Cc3ccoc3)C2=O)c(C)c1,14.1%
